Results taken from publication PMC4336329 (PLoS ONE, 2015).
In all, about 310,000 compounds went through this assay and about 2,200 (0.71%) showed an effect of 50% or more. The effect is printed as a negative number. The list shows a part of the results.

Target: human ether-à-go-go-related gene (hERG) potassium channel (human, UniProt Q12809)
Experiment: primary screen, population patch clamp on CHO cells stably expressing hERG

Chain of human ether-à-go-go-related gene (hERG) potassium channel (Q12809 whole entry, looked up): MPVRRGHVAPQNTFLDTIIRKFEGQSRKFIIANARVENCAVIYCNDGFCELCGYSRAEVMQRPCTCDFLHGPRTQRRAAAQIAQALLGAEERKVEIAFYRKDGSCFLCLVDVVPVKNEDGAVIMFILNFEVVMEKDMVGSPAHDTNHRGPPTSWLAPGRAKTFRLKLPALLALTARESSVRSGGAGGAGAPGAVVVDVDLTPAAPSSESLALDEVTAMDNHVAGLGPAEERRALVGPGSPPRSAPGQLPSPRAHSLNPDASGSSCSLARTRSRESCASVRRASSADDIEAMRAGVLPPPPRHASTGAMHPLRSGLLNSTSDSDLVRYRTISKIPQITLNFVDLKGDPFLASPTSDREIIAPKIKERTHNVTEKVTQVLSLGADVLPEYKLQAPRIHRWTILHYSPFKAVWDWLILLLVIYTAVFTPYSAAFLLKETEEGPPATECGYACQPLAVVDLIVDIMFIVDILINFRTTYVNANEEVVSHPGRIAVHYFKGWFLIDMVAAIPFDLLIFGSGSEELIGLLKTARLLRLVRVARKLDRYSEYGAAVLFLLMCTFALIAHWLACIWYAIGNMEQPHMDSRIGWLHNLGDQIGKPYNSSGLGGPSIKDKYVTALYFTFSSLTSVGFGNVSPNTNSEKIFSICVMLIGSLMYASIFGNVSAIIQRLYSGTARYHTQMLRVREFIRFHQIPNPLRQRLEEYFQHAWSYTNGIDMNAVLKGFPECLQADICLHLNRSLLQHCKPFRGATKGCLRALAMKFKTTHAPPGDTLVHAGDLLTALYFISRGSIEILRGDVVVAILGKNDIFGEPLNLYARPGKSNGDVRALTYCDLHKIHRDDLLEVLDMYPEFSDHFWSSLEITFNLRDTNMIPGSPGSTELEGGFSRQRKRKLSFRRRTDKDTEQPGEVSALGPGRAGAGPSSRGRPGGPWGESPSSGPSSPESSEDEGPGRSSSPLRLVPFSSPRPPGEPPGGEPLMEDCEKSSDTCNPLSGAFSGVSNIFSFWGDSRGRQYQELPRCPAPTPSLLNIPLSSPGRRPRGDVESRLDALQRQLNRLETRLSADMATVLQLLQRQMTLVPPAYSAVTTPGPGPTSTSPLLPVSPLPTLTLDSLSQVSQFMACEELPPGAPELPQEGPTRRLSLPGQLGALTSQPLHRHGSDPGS

Structure (SMILES)	hERG current change (%, negative = inhibition) at 1uM
S=C(NCCc1ccccc1)NCCc1cnc[nH]1	11.3%
O=C(c1ccc(N2C(=O)CCC2=O)cc1)N1CCN(c2ccccc2)CC1	14.2%
COC(=O)C(CC(C)C)NC(=O)/C=C/c1ccccc1Cl (stereo not shown)	10.6%
COc1ccc(/C=N/Nc2cc(OC)ncn2)cc1	14.6%
CC(C)(C)NC(=O)CSc1nc(-c2ccccc2)c(-c2ccccc2)[nH]1	-2.4%
CSc1ccccc1NC(=O)CN(C)C(=O)c1c(C)nn(Cc2ccccc2)c1C	-0.458%
O=C(CSc1nc2ccccc2c(=O)n1-c1ccc(F)cc1)NC1CC1	13%
CC(C)(C)N(Cc1cc2ccccc2[nH]c1=O)C(=O)c1cccc([N+](=O)[O-])c1	11.4%
CCOC(=O)c1[nH]c(CSc2nnc(-c3ccc(OC)cc3)o2)c(C(=O)OCC)c1C	15.6%
Cc1cc(C(=O)NC2CCCN(Cc3ccccc3F)C2)n[nH]1 (stereo not shown)	16.1%
NS(=O)(=O)c1ccc(NC(=O)COC(=O)CCc2ccccc2)cc1	20.5%
COc1ccc(OC)c(NC(=O)C(=O)NNC(=O)COc2ccc(Br)cc2C)c1	14.8%
Cc1cc(=O)n(CCC(=O)O)c2ccccc12	1.97%
COC(=O)/C(=C\C=C\c1ccccc1)NC(=O)c1ccccc1	10.1%
CC(=O)N1CCN(CC(O)COc2ccc(OCc3ccccc3)cc2)CC1 (stereo not shown)	7.46%
Cc1nc(C)n(C(Oc2ccc(Cl)cc2Cl)C(=O)C(C)(C)C)n1 (stereo not shown)	6.26%
O=C(Nc1ccccc1F)c1ccccc1C(=O)Nc1ccccc1F	16.8%
COc1ccc(NC(=O)N(C2CCCCC2)C(C)c2cccnc2)c(OC)c1 (stereo not shown)	3.85%
CCOC(=O)c1ccccc1NC(=O)CSc1nnnn1C1CCCCC1	2.49%
CCn1ncc(C2=NOC(C(=O)Nc3c(C)nn(Cc4ccc(F)cc4)c3C)C2)c1C (stereo not shown)	14.7%
Cn1ccnc1SCC(=O)Nc1ccc2c(c1)COC2=O	15.2%
Cc1ccc2c(c1)C1CN(C)CCC1N2CC(=O)N(C)c1ccccc1 (stereo not shown)	5.81%

Structure (SMILES)	hERG current change (%, negative = inhibition) at 1uM
C/C(=N\NS(=O)(=O)c1ccc(C(C)(C)C)cc1)c1ccccc1	13.8%
COc1cccc(C(=O)NCCS(=O)(=O)NCCc2ccccc2)c1	4.91%
N#CCSc1n[nH]c2nc3c(c(=O)n12)C1(CCCC1)Cc1ccccc1-3	6.77%
O=c1[nH]c2ccccc2nc1-c1cccs1	3.79%
CCN(Cc1ccccc1)C(=O)CCCOc1ccccc1	7.59%
CC1(C(=O)O)CCC(C(=O)NNC(=O)c2ccccc2O)C1(C)C (stereo not shown)	6.95%
COc1ccccc1NC(=O)COc1cc(C)nc(C(C)C)n1	10.9%
COc1ccc(-n2ncc3c(NCCN4CCOCC4)ncnc32)cc1	7.57%
CC(C)C[C@H](NC(=O)c1nc[nH]c1C(=O)N[C@@H](CCCCNC(=O)OC(C)(C)C)C(=O)OC(C)(C)C)C(=O)OCc1ccccc1	7.99%
O=C(CSc1nc2ccc(NC(=O)c3ccccc3C(=O)O)cc2s1)Nc1ccc(F)c([N+](=O)[O-])c1	14.6%
NC(=O)N=Nc1c(O)[nH]c2c(Br)cc(Br)cc12	8.25%
O=C(O)COC(=O)C1C(c2ccccc2)C(C(=O)O)C1c1ccccc1 (stereo not shown)	6.51%
O=C(Nc1nncs1)C1CC(=O)N(CCc2ccc(F)cc2)C1 (stereo not shown)	27.7%
Cc1ccc(N(CC2CO2)S(=O)(=O)c2ccccc2[N+](=O)[O-])cc1 (stereo not shown)	11%
COC(=O)C1=C(c2ccc(Cl)c(C(F)(F)F)c2)C[C@@H]2CC[C@H]1N2C(=O)N1CCC(C)CC1	10.3%
Cc1ccc(S(=O)(=O)NCCN=Cc2ccc(N(C)C)cc2)cc1	20.4%
CC(C)OC(=O)c1cc2ccccc2[nH]1	3.75%
Cc1ccc(C)c(NC(=O)COC(=O)CCCN=C2NS(=O)(=O)c3ccccc32)c1	-0.821%
CCN(CC)c1ccc(C2=NNC(=O)CC2C)cc1[N+](=O)[O-] (stereo not shown)	15.8%
CCn1cc(C(=O)N2CCN(c3ccc(F)cc3)CC2)c2cc(OC)c(OC)cc2c1=O	-41.7%
Cc1ccc(C(C)C)c(OCCn2c(=O)oc3ccccc32)c1	15.9%
CC(C)CCC(C)NC(=O)C1CCN(S(=O)(=O)/C=C/c2ccccc2)CC1 (stereo not shown)	12.3%

Structure (SMILES)	hERG current change (%, negative = inhibition) at 1uM
Cc1ccccc1CN1C2=NCCCN2c2ccccc21.Cl	-27.3%
O=C(NCC1CCCO1)c1cn(-c2ccccc2)nc1-c1ccccc1 (stereo not shown)	13.4%
COc1ccccc1Oc1ccccc1C(=O)O	-3.73%
Cc1cccc(C)c1NC(=O)CSc1nc2ccccc2c(=O)[nH]1	12.8%
CCN1C(=O)C(CC(=O)Nc2ccc(OC)cc2)N(CCN2CCOCC2)C1=S (stereo not shown)	2.94%
COc1ccc(NC(=O)CN(C)CC(=O)NC2CCCCC2C)cc1 (stereo not shown)	11.1%
CC1(C)Cc2c(sc3c2c(N)nc(=S)n3Cc2ccccc2)CO1	-17.9%
O=C(c1ccccc1)c1ccc(CN2C(=O)c3ccccc3C2=O)o1	7.28%
CCC(C)Nc1c([N+](=O)[O-])cc(C)cc1[N+](=O)[O-] (stereo not shown)	19.1%
Cc1ccc(C)c(S(=O)(=O)NCC(=O)Nc2ccc3c(c2)OCO3)c1	10.6%
COc1ccc(CNC(=O)COC(=O)CCC(=O)c2cccs2)cc1	-0.413%
O=C(/C=C/c1ccc(Cl)cc1)NCc1cccs1	11.6%
CCOC(=O)N1CCC(NC(=O)CCc2c(C)nc3c(c(C)nn3C(C)(C)C)c2C)CC1	3.32%
CCOc1ccccc1NC(=O)CNS(=O)(=O)c1ccc2nc(C)sc2c1	10.8%
COCc1nnc(NC(=O)c2ccc(S(=O)(=O)N3CCCCCC3)cc2)o1	-2.48%
Fc1ccc2c(c1)C(c1cccnc1)=NNC(c1cccs1)=N2	-9.86%
CCOc1ccc(NC(=S)NCc2cccnc2)cc1	-4.48%
CCn1c(=S)ccc2ccc(OC)cc21	4.79%
O=C(Cc1ccc(Cl)cc1)NCCN1CCN(C(=O)Cc2ccc(Cl)cc2)CC1	-18.4%
CC1CCCC(NC(=O)c2ccc3c(c2)N(Cc2ccccc2)C(=O)CS3=O)C1C (stereo not shown)	12.2%
O=C(CC1C(=O)NCCN1Cc1cccc(C(F)(F)F)c1)NCCCOc1cccnc1 (stereo not shown)	15.2%
CCOC(=O)/C=c1\s/c(=C\c2c(OCC)ccc3ccccc23)c(=O)n1CC(=O)NCC1CCCO1 (stereo not shown)	7.26%

Structure (SMILES)	hERG current change (%, negative = inhibition) at 1uM
NC(=O)CN1C(=O)NC(c2ccccc2)(c2ccccc2)C1=O	16.4%
O=C(NCCCN1CCOCC1)c1cnn2c(-c3ccccc3)cc(-c3ccccc3)nc12	1.88%
O=c1cc(CSc2ccc(Cl)cc2)nc(-c2ccncc2)[nH]1	12.3%
COc1ccc(-c2csc3nc(-c4ccccc4)oc(=O)c23)cc1OC	9.88%
CN(C(=O)COC(=O)c1cccc(S(=O)(=O)N2CCOCC2)c1)C1CCS(=O)(=O)C1 (stereo not shown)	11.7%
O=C(c1cc2n(n1)C(C(F)(F)F)CC(c1ccco1)N2)N1CCc2ccccc2C1 (stereo not shown)	-13.6%
Cc1ccc(-c2nn(-c3ccccc3)cc2/C=C/C(=O)O)o1	9.82%
CC(C)OCCCNC(=O)c1cc(S(=O)(=O)N2CCc3ccccc32)cn1C	-2.76%
CCCCC[n+]1ccn(-c2nc3ccccc3nc2[N-]S(=O)(=O)c2ccc(C)cc2)c1	11.3%
Nn1cc(-c2ccccc2)nc1SCC(=O)NCC(F)(F)F	5.69%
CC1(C)CC2CC(C)(CN2/C=C2/CCCCC2=O)C1 (stereo not shown)	0.401%
O=C(Nc1ccc(C(=O)N2CCN(c3ccc(F)cc3)CC2)cc1)C1=CSCCO1	9.64%
O=S(=O)(/N=C(/Nc1cccc2ccccc12)c1ccccc1)c1ccc(Br)cc1	19%
CCOC(=O)c1cnn(-c2ccc(C(C)C)cc2)c1NC(=O)C1CCC1	21.4%
Cc1cc(/C=C(\C#N)C(=O)NCc2ccco2)c(C)[nH]1	6.66%
CN(C)c1ccc(NC(=O)COC(=O)c2cc(Cl)ccc2[N+](=O)[O-])cc1	10.1%
COc1cc(C#Cc2c(-c3ccccc3OC)oc3ccccc23)cc(OC)c1	6.15%
Cc1cc(Cl)ccc1C(=O)C1CCCN(Cc2ccon2)C1 (stereo not shown)	11.4%
CCSC(=O)NC12CC3CC(CC(C3)C1)C2	11.3%
Cn1c(=O)cc(OCC(=O)NCc2cccs2)c2ccccc21	7.51%
Cc1cc(C)c(NC(=S)NCC2CCN(C(C)c3ccccc3)C2)c(C)c1 (stereo not shown)	5.99%
CC(/C=N/NC(=O)Cn1nnc(N)n1)=C\c1ccc(C(C)C)cc1	8.69%
